According to the supplement of paper PMC10126150:
Sequences with one replicate were seen in a single cluster, so their values are uncertain.

Tested on: ATP
Experiment: switch fluorescence ratio, 500 uM ATP over buffer (Cy3 cluster intensity, sum of 5 cycles each) (fold (ratio)); higher = stronger signal-on switching upon ATP binding; sequences stand for … in TCGTCGGCAGCGTCAGATGTGTATAAGAGACAGTTTTTTTTTTTTTTTTTTTTTTTTT…TC
Conditions: aptamer strand: ATP DNA aptamer (quencher-CACCTGGGGGAGTATTGCGGAGGAAGG + anchor), 100 nM annealed; ATP concentration: 500 uM; one replicate
Outline: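 Values give the fluorescence ratio for each switch-domain sequence, averaged from per-cluster ratios of summed target-cycle to summed buffer-cycle Cy3 intensity. The Cy3-labelled switching-strand clusters sat on a modified Illumina MiSeq flow-cell, were annealed to 100 nM quencher-labelled ATP aptamer, and were imaged in selection buffer, then after 15 min with 500 uM ATP at 22 °C. Five cycles ran with NaOH stripping and re-annealing between them, and clusters outside 100-1000 RFU were excluded.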
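Further: ATP exposure 15 min at 22 °C before imaging.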

Row | Sequence | switch fluorescence ratio
1 | TCGAACTCT | 0.976
2 | CAAACGACGG | 1
3 | AGCTTAAAGT | 0.993
4 | GCCTACTCGT | 1.01
5 | GCAGCCGACG | 1.11
6 | CGGAGGGTTG | 1.02
7 | GCGAGCCTGC | 0.986
8 | CAGTCTACGG | 0.955
9 | AGGGGCCAGG | 1.09
10 | GTCAGGGCCG | 1.1
11 | CGCATTTTCG | 1.11
12 | TCAACCTTAG | 1.02
13 | GCCCAATAGT | 1.2
14 | ACAAAGGGA | 1.04
15 | TGGAGAGGCA | 1
16 | CCTATTATAG | 1.01
17 | TAGAGGGTA | 0.934
18 | AAGCTGGCGT | 0.996
19 | TTATAAAATG | 1.03
20 | GCACGTCGTA | 1.05
21 | ACTGGTACCT | 1.16
22 | TTATGACGTT | 1.07
23 | GGATACGCTT | 1.14
24 | ATCACGGGTG | 1.54
25 | ACTCAATTA | 1.04
26 | ACTAGAGCAA | 1.36

Row | Sequence | switch fluorescence ratio
27 | GGCCATGGAA | 0.991
28 | TGATCCGTAA | 2.91
29 | CATGAGCTCG | 1.04
30 | ACCCCGCTCG | 1.18
31 | CTATATTGTC | 1.03
32 | CATGAGAGAA | 0.986
33 | CTGTTAACAT | 1.01
34 | GGGCGTGGGT | 1.04
35 | TCGATCTTA | 1.03
36 | ACGGCTGAGT | 1.03
37 | AGTCATTCAA | 1.02
38 | TACAAGGAGG | 0.968
39 | GTGTGGCCCG | 1.02
40 | ATGGAACAAA | 0.996
41 | TGCCCTGTAA | 1
42 | GACAGTTTCA | 0.999
43 | CAAGCTGCAG | 0.986
44 | AACGGGCTAC | 1.14
45 | AGGGTCCCAT | 1.03
46 | TTAGCTTGAT | 0.99
47 | GTGCTTCAGT | 0.98
48 | ATACGGTGAA | 1.01
49 | ACGGCTTCAG | 0.976
50 | TGGGTATGGA | 1.04
51 | CTATACATA | 1.14
52 | TAAGATATGT | 0.972

Row | Sequence | switch fluorescence ratio
53 | CTCCAACTTG | 0.996
54 | CCGGATGATG | 1.02
55 | GCATACCTTG | 1.01
56 | GAGGCGTAC | 1.51
57 | TTAGTTCGCA | 1.06
58 | TACATGTGT | 0.978
59 | GCCGGCCACC | 1.03
60 | AACCTATTTG | 1.04
61 | AATCAGAGCA | 1.05
62 | CCACAGTTTA | 0.995
63 | TCTTGAATGC | 1.02
64 | GACAACCGCA | 1.2
65 | TTTGAGCAAA | 2.78
66 | ACTTTAAGAT | 1.04
67 | GGACTTCCA | 0.961
68 | CATGGGTTT | 1.02
69 | AGGATTGGAT | 0.987
70 | AACCTTGGCG | 0.987
71 | AATGTGGTCC | 1.02
72 | CTTCCTGTTG | 1.09
73 | TAATATCTGT | 1.01
74 | CACCGTCTTC | 1.05
75 | AAGATATGGT | 0.982
76 | CTATGAAGAT | 0.993
77 | GTATGACAAA | 1.02
